Source: paper PMC6212790
The list shows a part of the results. At the low end of the ranking the order means little.

Each sequence was assayed against T1, GST-Rok-C97-191 (UniProt O34857) (assay: protein binding microarray). Conditions: Rok is a gene silencer of Bacillus subtilis; high values mean tight binding; most listed sequences are background and not binding sites; double strand, one strand shown.
T1 sequence: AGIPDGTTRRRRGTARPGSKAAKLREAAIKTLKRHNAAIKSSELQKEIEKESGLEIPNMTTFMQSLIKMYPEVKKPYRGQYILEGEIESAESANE
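Further: rank score from −0.5 (least bound) to 0.5 (best bound).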

| Sequence | binding signal |
| --- | --- |
| ACGCTTGG | -0.235 E-score |
| CCATTCCA | -0.151 E-score |
| AGACGGTC | -0.222 E-score |
| CAAATACA | 0.187 E-score |
| CCTCATAC | 0.0322 E-score |
| ATGACCTA | -0.0267 E-score |
| ATCTTTTA | 0.239 E-score |
| CAGCTGCG | -0.282 E-score |
| GGTCGGAA | 0.0129 E-score |
| GCCTGGAC | -0.192 E-score |
| AAAGGGTC | -0.19 E-score |
| CAATGGCG | -0.0875 E-score |
| AGACAGCT | -0.196 E-score |
| AAGAAACT | 0.217 E-score |
| CCTGTCAA | -0.118 E-score |
| CGGTCCAG | -0.196 E-score |
| CTACCCAA | -0.00276 E-score |
| TACATCAA | 0.188 E-score |
| AAGGATGT | -0.0483 E-score |
| GTCGGGTA | 0.0532 E-score |
| CTATGGTA | 0.211 E-score |
| ATTCACTC | -0.124 E-score |
| GATTTGGC | -0.0055 E-score |
| AGGGGGTG | -0.382 E-score |
| GATACTAC | 0.313 E-score |

| Sequence | binding signal |
| --- | --- |
| AGTCTTGG | -0.108 E-score |
| AGAATCAT | 0.241 E-score |
| ATTCGCGC | -0.0661 E-score |
| AGTCATGC | -0.00825 E-score |
| CTTGGTAC | 0.0462 E-score |
| TTAAAAAA | -0.0566 E-score |
| AATATCCA | 0.12 E-score |
| ATAAACAA | 0.0695 E-score |
| CCTGACCC | -0.269 E-score |
| ACAGAGGT | -0.094 E-score |
| CCGTCCCA | 0.0347 E-score |
| GAGGCATA | -0.0575 E-score |
| ATTAAGTC | -0.018 E-score |
| AGGAAGAC | -0.0651 E-score |
| GCGGTTCC | -0.143 E-score |
| GGGCGTCA | -0.293 E-score |
| GCTATTGA | 0.0757 E-score |
| ATGTGAAT | 0.0623 E-score |
| ACCACCAT | -0.0276 E-score |
| ACAGCGTG | -0.123 E-score |
| GAAGCCTC | -0.166 E-score |
| ATTGATAC | 0.22 E-score |
| ATAGGCCC | -0.222 E-score |
| AAGCCTAA | -0.0889 E-score |
| ACTTGCCG | -0.0251 E-score |

| Sequence | binding signal |
| --- | --- |
| ATCCCAGC | -0.154 E-score |
| GCCGGCCC | -0.255 E-score |
| ATGTGAAC | 0.0898 E-score |
| ACTCGGTA | 0.286 E-score |
| AAGAAGCA | -0.117 E-score |
| CCCCCCCC | -0.28 E-score |
| ATACGAAC | 0.134 E-score |
| GACGCGTC | -0.099 E-score |
| AACCAACA | 0.202 E-score |
| AAACAGTC | -0.0408 E-score |
| CGTTTTAA | 0.186 E-score |
| ATCAACAA | -0.00505 E-score |
| ACCACGCG | -0.228 E-score |
| GTGATTTA | 0.0263 E-score |
| CTAGGCCC | -0.276 E-score |
| GACTCCGC | -0.151 E-score |
| CTTTTAAA | 0.0378 E-score |
| GGTCAACC | -0.0613 E-score |
| TGGTTACA | 0.0946 E-score |
| ACGCAGTC | -0.208 E-score |
| ATGCTAGC | 0.102 E-score |
| GTCGCACA | -0.0384 E-score |
| CCACGAAC | -0.316 E-score |
| CGACCTAA | -0.105 E-score |
| CGTTCCAG | 0.0308 E-score |

| Sequence | binding signal |
| --- | --- |
| CCGGCAGA | -0.102 E-score |
| CCGATTGA | -0.00347 E-score |
| GGGACAAC | -0.161 E-score |
| GGGCACGA | -0.233 E-score |
| CAAGTCGC | -0.162 E-score |
| CCGGAGAC | -0.0555 E-score |
| GGTTGAGA | 0.00996 E-score |
| AACTTGGT | -0.119 E-score |
| AAGCCCTT | -0.092 E-score |
| CCCTAAAG | -0.181 E-score |
| ATTCCACA | 0.138 E-score |
| ATGGATAA | 0.274 E-score |
| GTAAGCGA | -0.0245 E-score |
| AGTTCAAA | 0.0142 E-score |
| CGTCCAAG | -0.0772 E-score |
| TAAAGCAA | -0.0284 E-score |
| CCGGGAAA | -0.0708 E-score |
| CTATGCCA | -0.00435 E-score |
| CACGCTAG | 0.102 E-score |
| CGACGGAC | -0.255 E-score |
| AGGCTTTC | -0.0156 E-score |
| GTAATTAA | 0.213 E-score |
| CTAGTAGC | 0.251 E-score |
| ATAACTAC | 0.323 E-score |
| CCCCACAA | -0.324 E-score |

| Sequence | binding signal |
| --- | --- |
| GCTCCTAA | -0.264 E-score |
| GTGTCATA | -0.0304 E-score |
| GATACGCC | 0.0171 E-score |
| TGAGTTAA | 0.247 E-score |
| CCCACGGG | -0.352 E-score |
| CAAAGGCA | -0.18 E-score |
| ACGTGGGG | -0.173 E-score |
| AGTGCGTG | 0.0624 E-score |
| AATAGTAG | 0.475 E-score |
| ACCAGACT | -0.239 E-score |
| CACCATGG | -0.115 E-score |
| GAAACAGC | -0.0502 E-score |
| CTTAAGTA | 0.197 E-score |
| ACCCATCA | -0.182 E-score |
| CACGTCTG | -0.111 E-score |
| GGTTTTGA | 0.0578 E-score |
| ATCGATGA | 0.215 E-score |
| CCAGCCCG | -0.295 E-score |
| CGGCACTA | 0.0999 E-score |
| CCTGTTCA | -0.198 E-score |
| GTTGTGAA | 0.0836 E-score |
| TCTGATCA | 0.102 E-score |
| AGGTGTGG | -0.0866 E-score |
| GTGCCAAA | -0.0299 E-score |
| GACCGCAC | -0.11 E-score |

| Sequence | binding signal |
| --- | --- |
| GTAGGTTA | 0.251 E-score |
| CATTCTGA | -0.0618 E-score |
| GGGTCTAC | -0.137 E-score |
| CGCTTAAC | 0.0587 E-score |
| ATTCTCAG | -0.0354 E-score |
| ACCTTAAA | 0.023 E-score |
| ACGTTTGC | -0.0306 E-score |
| ACGTAACT | 0.168 E-score |
| CCGAGTAC | -0.0881 E-score |
| GTCCCATA | -0.123 E-score |
| CAGGTCAC | -0.123 E-score |
| GATACGAC | 0.0623 E-score |
| AAAACGAA | -0.0738 E-score |
| ATAAGTAG | 0.307 E-score |
| GCGACCCA | 0.134 E-score |
| CATCGTGC | -0.0416 E-score |
| AACTAAGA | 0.223 E-score |
| CATCGTCA | -0.0281 E-score |
| GCACGGGC | -0.193 E-score |
| GCCGATGA | -0.145 E-score |
| ATATAGAA | 0.347 E-score |
| AGTGGCCG | -0.0389 E-score |
| GAACACTA | -0.146 E-score |
| CGCTTGGA | -0.24 E-score |
| AATAATCT | 0.0918 E-score |

| Sequence | binding signal |
| --- | --- |
| CTTTGTGC | -0.229 E-score |
| CAAGCGTC | -0.148 E-score |
| CGCTGCAG | -0.286 E-score |
| CTCCTGTC | -0.234 E-score |
| TACTGAGA | 0.0745 E-score |
| CCTGAAAC | -0.0142 E-score |
| ACGGTATA | 0.215 E-score |
| AAGCGGAC | -0.0303 E-score |
| AGTCACGA | -0.102 E-score |
| CGTCCTAG | -0.269 E-score |
| ATTCGCCG | -0.0321 E-score |
| CTGCCCAA | -0.00161 E-score |
| GTCCGCTA | -0.0907 E-score |
| CCGGCCAA | -0.177 E-score |
| TACGCCAA | -0.125 E-score |
| ATAACTAG | 0.232 E-score |
| CTCACTCA | -0.0724 E-score |
| CGCTCTGC | -0.0463 E-score |
| TCACAAAA | 0.0113 E-score |
| GCCGTTCA | -0.0643 E-score |
| GCCGTTAC | -0.0424 E-score |
| ACAGGGTA | 0.0816 E-score |
